The results in this text go back to the RNAGym collection of RNA variant scans (doi:10.1093/nar/gkz1192).

The labels stand for the following.
B1: CPEB3 Ribozyme (parent)
chain: UAACAGGGGGCCACAGCAGAAGCGUUCACGUCGCAGCCCCUGUCAGAUUCUGGUGAAUCUGCGAAUUCUGCUGUAUAUCUC

The source gives no read counts; variants with many changes may rest on few reads.

The series covers variants of B1. The experiment in a line: self-cleavage, relative activity (ratio to wild type); higher = more cleavage; in vitro, sequencing. An outline of the steps: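 Barcoded CPEB3 ribozyme mutants, produced by rounds of error-prone PCR, self-cleaved while being transcribed with T7 RNA polymerase for 5 hours at 37°C and during a subsequent 15 min DNase I step before EDTA was added. Sequencing of template-switched cDNA on Illumina gave cleaved and total reads, and DNA sequencing assigned barcodes to variants. Each variant's relative activity is its cleaved/total read fraction divided by the unmutated ribozyme's fraction, averaged across three batches. A variant needed a minimum of 5 reads.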
U31C U66A U67C: the self-cleavage is 0.11.
With A35G A64G U69C U78C, the self-cleavage stood at 1.08.
Consider A35G G52A A56G, for which the self-cleavage amounted to 1.24.
Take C32U U41A A56G A64G: the self-cleavage was 0.08.
As for G33A A35C A56U U78C, the self-cleavage stood at 0.18.
On to C32A U48A U69A, for which the self-cleavage turned out to be 0.17.
With A35U U41C U60C U69C U72C U80C, the self-cleavage is 0.16.
With C34U A45G U72C, the self-cleavage is 0.38.
The same measure for C32G G36A A45G U48C U69A: 0.09; for A35G C50U A56G: 1.45.
Consider U31C G33A A64G C71U U72A, for which the self-cleavage was 0.11.
Turning to U31G U66C U67C, the self-cleavage was 0.18.
For A35G A56G C59A, the self-cleavage was 0.72.
The value for G33C C37U A57G U72A was 0.06; that for C32A A45G U69C was 0.13; that for A35G U66C A77G was 1.33.
For the variant A35G U60C A64G A77G, the self-cleavage was determined as 0.83.
Consider C34G U54G A77C, for which the self-cleavage stood at 0.19.
The same measure for U31C U60A A65G: 0.17; for C32U G46U U66A U78A: 0.06; for G33C A77U U80A: 0.15.
For the variant U31C U41C U67C, the self-cleavage came out at 0.5.
Consider A35G C40U A56G, for which the self-cleavage came out at 1.27.
On to A35G U51A U72C, for which the self-cleavage was 1.27.
With C34U U66C U80C, the self-cleavage came to 0.17.
The value for C32U U41C A45G was 0.13; that for C32A C38G U78C was 0.07.
Turning to A35G C39U U48C, the self-cleavage came to 1.24.
For the variant A35G C37G U41C A56G C59A C81U, the self-cleavage amounted to 0.17.
A35G U43C A57G A65G U78C: the self-cleavage stood at 0.72.
With A35U A47U U54C U66C, the self-cleavage came out at 0.07.
Regarding A35U C40A U43A U49C A56G U72A, the self-cleavage stood at 0.1.
Take A35U G70C U80C: the self-cleavage is 0.15.
Regarding A35U U41A A45C C71G U76A, the self-cleavage turned out to be 0.03.
Consider G33U U43C U51G G61A U78C, for which the self-cleavage is 0.07.
Turning to G33C C39A U48C U74C, the self-cleavage turned out to be 0.05.
Regarding U31C U41C U80A, the self-cleavage is 1.03.
As to A35G U49A U51C U54A, the self-cleavage is 1.24.
As to U31C U67C U74C A75U, the self-cleavage came to 0.14.
Regarding U31C C39A A45C U60C, the self-cleavage came to 0.16.
The value for U31G U41C U60A G70C was 0.21; that for G33A C34U C62U was 0.12; that for A35G U48A U54C U72A G73C U76C U80C was 1.18.
Take A35G U41C U48A C71A: the self-cleavage is 0.19.
As to A35G U60A C81U, the self-cleavage came to 1.24.
For U31C U43C U74A, the self-cleavage is 0.63.
On to A35G U67A U72A, for which the self-cleavage was 1.09.
The same measure for U31C U41C U76C: 1.02.
For C32U G33A U41A U74A, the self-cleavage was determined as 0.22.
As for U31G C34A U58C U66C U74A, the self-cleavage was 0.06.
Turning to G33U A35U C37G U80C, the self-cleavage came out at 0.28.
The same measure for U31G A65U U69C U72A: 0.12.
As for A35G A45G U51C A57G U67C, the self-cleavage amounted to 0.4.
The same measure for G33A U60A U67C: 0.07; for A35G A45C A56G C62G: 0.22.
Turning to A35G U41A A56G U58C C71A U74C U80C, the self-cleavage turned out to be 0.05.
The same measure for A35G U43C U49C: 0.66; for U31C C50A A75G: 0.18.
The same measure for U31C C62A C81A: 0.16; for A35G U43A U51C A56G: 1.38; for A35G U43C U67C C81U: 0.19.
Take A35U A65U U74C: the self-cleavage is 0.14.
For the variant G33A U48A A56G U78G U80C, the self-cleavage amounted to 0.05.
Consider G33U U66A U69C U72C, for which the self-cleavage amounted to 0.09.
Consider C34U U72C U80C, for which the self-cleavage was found to be 0.59.
Take U31C C40U A45U U51A: the self-cleavage worked out at 0.06.
Consider U31G U58C U72A, for which the self-cleavage was 0.15.
As to U31C U60A C79U, the self-cleavage was 0.53.
In the case of U31C U76C U80C, the self-cleavage came to 1.08.
On to A35G G36A A47G, for which the self-cleavage was determined as 0.88.
With U31G U58C A77G, the self-cleavage is 0.17.
The value for A35G A65C U67C U72A U78C U80C was 0.43.
C34A G36U U54C A56G: the self-cleavage worked out at 0.1.
For the variant A35G U41C U76A, the self-cleavage was 1.26.
Consider C32G U51A G55U U58C A64G, for which the self-cleavage was 0.08.
On to A35G C37U A57G, for which the self-cleavage worked out at 1.25.
In the case of U31C G33U U51A A56G U80C, the self-cleavage was 0.1.
On to A35G G52A A56U U58C, for which the self-cleavage is 0.73.
As for A35G U49C G55C U80C C81U, the self-cleavage was 1.03.
For the variant A35G A57G U80A, the self-cleavage worked out at 1.25.
U31C U60A U67C U76A A77U: the self-cleavage was found to be 0.11.
Take U31G A64G A65C: the self-cleavage is 0.23.
As for A35G U54A A64G U72C U78A, the self-cleavage amounted to 1.31.
The same measure for A35G U48A U58C U66C: 0.16; for A35U A47U U58C: 0.27; for G33A U41C G53C C71U U78A: 0.01.
Take A35G A57G U74C: the self-cleavage came out at 1.28.
A35G G42A C62U U72A: the self-cleavage is 0.15.
The value for A35G A65G U74A was 1.37.
Regarding U31C U54C U76C A77U, the self-cleavage was 1.04.
In the case of C32A C44U U67C, the self-cleavage is 0.11.
In the case of G33U A45C U66A, the self-cleavage stood at 0.11.
The same measure for U31C U72A G73U: 1.11; for A35U C62U A64U: 0.15.
Turning to G33A U49C U58C U72G, the self-cleavage was 0.09.
Take A35C U41C U60A U72C U74A: the self-cleavage came out at 0.75.
Regarding A35G U41A U80A, the self-cleavage turned out to be 0.52.
Consider G33C U54C A77U, for which the self-cleavage is 0.16.
In the case of U31C C39U U72C U76A, the self-cleavage amounted to 0.35.
On to U31C U49A A75U, for which the self-cleavage is 0.55.
The value for G33U U60G U69C G70A was 0.1; that for A35G A47G A57G was 1.2.
For U31C U43G U74A, the self-cleavage was 0.13.
Regarding A35G U54C A56U, the self-cleavage came to 1.17.
As for U31C U58C U72A, the self-cleavage was found to be 0.18.
For the variant G33A A35C C37U U74C A77G, the self-cleavage was 0.16.
A35U A47G U76C: the self-cleavage worked out at 0.35.
The value for A35U A75G A77G was 0.26; that for C34G U41A U78C was 0.12; that for A35G U43A U51A U72C U76C was 1.29.
Regarding C34A U51C U58C U72C U76A, the self-cleavage stood at 0.07.
The same measure for A35G U60A U72A: 0.63; for A35U C40U U41A: 0.1; for U31G C38A G63A A64G C68G U74C: 0.04.
Take C34G G42A A56U U80A: the self-cleavage amounted to 0.06.
As to G33C U43C U54C C62U, the self-cleavage stood at 0.1.
As for G33C A56G U69A A77G, the self-cleavage was 0.1.
The same measure for A35G U69C G70C U80C: 0.32; for C34A A45U U66C: 0.11.
The same measure for C34G U49C A56G U72C: 0.1; for C34A U49C A57G C59A A65G: 0.38.
Consider U31C U51C U54C U69G, for which the self-cleavage came to 0.31.
Regarding A35U U41C A57G, the self-cleavage was 0.36.
The value for U31C U43G A47U U54C A56U was 0; that for A35U C38U U60A U67C was 0.08; that for A35U A57G C62G was 0.18.
The same measure for U31C G33A A47G U80C: 0.42; for U31C U51C A56G G63A U69C U76C: 0.29.
For G33U U49C A77U, the self-cleavage came to 0.15.
The same measure for C34G U58A U69A: 0.07; for A35G A45G U74C: 1.27.
As for C32U U41A U51A A56G G61U U69C U72A, the self-cleavage came to 0.06.
Consider A35U A45C U60C, for which the self-cleavage amounted to 0.09.
As to C34U U41C U80A, the self-cleavage was 0.5.
With G33A U51A C59U U72A, the self-cleavage came to 0.43.
For the variant A35G U41A U72A, the self-cleavage was 0.35.
The same measure for G33A U72G U78C: 0.2; for A35G A57G U69C: 1.13.
A35U A56G U58A: the self-cleavage is 0.4.
As to G33U A45U U76C, the self-cleavage is 0.11.
For A35U A65G U80C, the self-cleavage worked out at 0.24.
Take U31C U51A U74A U80C: the self-cleavage came out at 1.21.
Turning to U31C U54C U60C, the self-cleavage stood at 0.26.
Take C34U C50U U72C: the self-cleavage was determined as 0.54.
With U31C U69C U78C, the self-cleavage stood at 0.36.
As to C32U U49C C79U, the self-cleavage is 0.35.
For G33A U67C U80C, the self-cleavage worked out at 0.15.
The value for A35U U41C G42C U66C was 0.13.
The same measure for G33A U66C U80C: 0.1; for C32A U43C U72G: 0.07; for C34U G55A U60C C62U A65G U69A: 0.41.
G33A A45G A64U: the self-cleavage came to 0.22.
As for U31C G55A A64G, the self-cleavage is 0.19.
Take A35G U51G U54C U66C: the self-cleavage came to 1.21.
With A35C U72C U80C, the self-cleavage stood at 1.22.
In the case of C34U U41A U49A U69C U80A, the self-cleavage came to 0.16.
Consider C34G A64G U69A G70C, for which the self-cleavage worked out at 0.12.
Consider U31G U66C C68U U69C U80C, for which the self-cleavage is 0.09.
With U31C U43C U60A, the self-cleavage was found to be 0.2.
The value for C34U U41A U48C A64U was 0.19; that for A35C U54C U58A was 0.18.
As for A35G A57G A77G, the self-cleavage was 1.28.
As for A35U A56G U67G U72G U80A, the self-cleavage worked out at 0.07.
Take G33A U58C U69C: the self-cleavage amounted to 0.1.
The same measure for C32U U74C A75U: 0.51.
The same measure for G33U U41A C62U G73A: 0.23; for C32U G36A A45U: 0.1.
